Test results taken from PubChem BioAssay AID1347073 (National Center for Advancing Translational Sciences (NCATS), 2019).
Among all 45,000 compounds or so, about 200 (0.44%) were called active. About 7% were inconclusive and are not listed. The call rests on the fitted dose curve; in most records, active means well fitted activation curve with a large enough effect; inconclusive means small, poorly fitted or top-dose-only effect; inactive means no such curve, though single readings can be large or run the other way. The list shows a part of the results.

Experiment: qHTS of TDP-43 Inhibitors: NCGC Sytravon Library Screen; further: 0% is about no effect; nearly all actives have a fitted effect of over 55% in size
Settings: yeast TDP-43 toxicity rescue, BacTiter-Glo growth, 24 h; series mostly up to 46.1 µM; growth rescue (activation): at the top concentration
Summary of the method: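 TDP-43-expressing yeast, pregrown in raffinose, seeded at OD600 0.02 in galactose medium with compound for 24 hr at 30 deg C. Growth read by BacTiter-Glo luminescence, so rescue of toxicity appears as activation.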

| Compound | growth rescue (activation) |
| --- | --- |
| Cc1ccc(S(=O)(=O)N2CCCCC2)cc1NC(=O)c1cc(F)c(F)c(F)c1F | inactive: 25.2% |
| O=C(Nc1ccc(S(=O)(=O)N2CCCCC2)cc1)C1CC(=O)N(c2ccc(F)cc2)C1 (centres undefined) | inactive: -0.0181% |
| COc1ccc(C(=O)Cn2c(NCCO)nc3ccccc32)cc1 | inactive: -12.1% |
| COc1ccc([N+](=O)[O-])cc1N(CC(=O)NCc1ccco1)S(C)(=O)=O | inactive: -9.45% |
| COc1ccccc1C(=O)N/C(=C\c1ccccc1)C(=O)NC(Cc1ccccc1)C(=O)O (centres undefined) | inactive: 10.6% |
| O=C(NC1CC1)C1CC(=O)N(c2ccc(F)cc2)C1 (centres undefined) | inactive: 8.34% |
| CC(=O)c1ccc(N2CCN(S(=O)(=O)c3ccc4c(c3)CC(C)N4C(C)=O)CC2)cc1 (centres undefined) | inactive: -4.1% |
| CCN(CC(=O)Nc1sc2c(c1C#N)CCC(C)C2)Cc1nc2ccccc2c(=O)[nH]1 (centres undefined) | inactive: 10.8% |
| Cc1cc(C)n(-c2nc3c(c(=O)n(C)c(=O)n3C)n2C)n1 | inactive: -7.29% |
| COC(=O)c1ccccc1NC(=O)C1CCCO1 (centres undefined) | inactive: 9.61% |
| CCOc1ccc2nc(N3C(=O)CNC3=S)sc2c1 | inactive: -8.79% |
| Cn1c(C(=O)N2CCN(c3ccc([N+](=O)[O-])cc3)CC2)cc2c(=O)[nH]c3ccccc3c21 | inactive: -13.2% |
| CC(C)(C)c1ccc(CC(=O)N2CCC2(C)C(=O)NS(=O)(=O)c2ccccc2Cl)cc1 (centres undefined) | inactive: 7.11% |
| O=C(O)c1cc(Cl)c(Cl)cc1C(=O)Nc1cccc2ncccc12 | inactive: 5.44% |
| Oc1ccc(Br)cc1/C=N/NC(=S)NCCc1ccccc1 | inactive: -0.0678% |
| COC(=O)c1ccc(NC(=O)Nc2ccc(OC)cc2)cc1 | inactive: 20.6% |
| N#CCCN(C(=S)NC(=O)C1CCCCC1)c1ccccc1F | inactive: 0.676% |
| Cc1nnc(SCC(=O)Nc2ccc([N+](=O)[O-])cc2)n1CC1CCCO1 (centres undefined) | inactive: 0.0871% |
| Cc1oc(-c2ccoc2)nc1CN(CC1CCC(=O)N1)C(C)C (centres undefined) | inactive: 10.1% |
| CCC(C)c1ccccc1NC(=O)COC(=O)c1ccc(N2CCCC2)c([N+](=O)[O-])c1 (centres undefined) | inactive: 9.4% |
| Cc1nc(SCc2ccc(O)c([N+](=O)[O-])c2)n[nH]1 | inactive: 5.62% |
| CCOC(=O)Cc1csc(NC(=O)CSc2nc(-c3ccccc3)c(C#N)c(=O)[nH]2)n1 | inactive: 8.83% |
| CCOC(=O)C1(C(F)(F)F)N=C(C(F)(F)F)Nc2ccc(F)cc21 (centres undefined) | inactive: -8.68% |
| CC(=O)N(Cc1ccccc1)Cc1cn(CCC#N)nc1-c1cccc([N+](=O)[O-])c1 | inactive: 19% |
| CCCCNC(=O)N1CCN(c2ccccc2OC)CC1 | inactive: 10.4% |
| CC1(C(=O)NS(=O)(=O)c2cccc(OC(F)F)c2)CCN1C(=O)c1ccco1 (centres undefined) | inactive: 15.4% |
| CC(=O)CNc1ccc(S(=O)(=O)N/N=C/c2ccccc2)cc1 | inactive: -8.8% |

| Compound | growth rescue (activation) |
| --- | --- |
| CC(C)(C)c1ccc(OCC(=O)NCCN2CCOCC2)cc1 | inactive: -3.79% |
| N#CC(c1ccccn1)c1ncc(C(F)(F)F)cc1Cl (centres undefined) | inactive: 5.43% |
| Cc1cc(C)cc(NC(=O)C(=O)NCc2ccccn2)c1 | inactive: 6.43% |
| Cc1[nH][nH]c(=O)c1C(c1ccc(-c2cccc(C(=O)O)c2)o1)c1c(C)[nH][nH]c1=O | inactive: -14.1% |
| O=C(NC1=NCCS1)C12CC3CC(CC(C3)C1)C2 | inactive: 13.3% |
| C=CCOc1ccccc1CN1CCCC(CCC(=O)N(C)CCc2ccccn2)C1 (centres undefined) | inactive: 13.9% |
| COc1ccc(OCC2CCCN(Cc3nc(CC4CC4)no3)C2)cc1 (centres undefined) | inactive: 16.9% |
| COc1ccc(CC(=O)Nc2ccc(S(=O)(=O)Nc3cc(OC)nc(OC)n3)cc2)cc1 | inactive: -1.26% |
| Cc1cccc(C(=O)NC(=S)Nc2ccccc2C(F)(F)F)c1 | inactive: 19.5% |
| Cc1cc(C(F)(F)F)n(-c2nc(C(=O)NNS(=O)(=O)c3ccccc3[N+](=O)[O-])cs2)n1 | inactive: 12.8% |
| Fc1ccc(C2Nc3cccc4cccc(c34)N2)cc1 | inactive: -11.5% |
| CC(=O)c1ccc2noc(-c3ccccc3)c2c1 | inactive: 18.9% |
| CC(C)OC(=O)c1ccc(COC(=O)c2cccc(-c3nnc(-c4ccccc4)o3)c2)cc1 | inactive: -18.3% |
| O=C(COc1cccc(C(F)(F)F)c1)Nc1nnc(C2CC2)s1 | inactive: 1.42% |
| CN(C)S(=O)(=O)c1ccc2c(c1)nc(CCC(=O)NCc1ccc(Cl)cc1)n2C | inactive: -17.2% |
| Cc1ccc(C(=O)OCC(=O)c2ccc(CC(=O)N3CCOCC3)s2)c(C)c1 | inactive: 2.17% |
| COc1ccc(-c2noc(-c3ccoc3C)n2)cc1 | inactive: 9.29% |
| CCNC(=O)C1(C)CCCN(Cc2csc(-c3ccc(Cl)cc3)n2)C1 (centres undefined) | inactive: 9.45% |
| CCOC(=O)Cn1c(=O)c2c(nc3n2CCN3c2ccc(CC)cc2)n(C)c1=O | inactive: 2.42% |
| COc1ccc(NC(=O)c2cc(-c3ccc(F)cc3OC)n[nH]2)c(OC)c1 | inactive: 4.68% |
| O=C(NCCCN1CCOCC1)c1cc2c(=O)[nH]c3ccccc3c2s1 | inactive: 0.449% |
| CCN(CC)c1ccc(NC(=O)CSc2nc(C3CC3)nc3ccccc23)cc1C | inactive: -3.76% |
| COc1ccc2[nH]c3c(=O)n4c(nc3c2c1)SCC4 | inactive: 17% |
| Cc1ccc(OCC(=O)NC2CC(C)(C)NC(C)(C)C2)cc1C | inactive: -1.92% |
| CCCOc1cccc(C(=O)N(Cc2ccc(C)o2)C2CCS(=O)(=O)C2)c1 (centres undefined) | inactive: 1.2% |
| COCCNC(=S)Nc1cc(OC)c(NC(=O)c2ccco2)cc1OC | inactive: 5.64% |
| CCc1nc2ccccc2c(C(=O)OCC(=O)NC2CCCC2)c1C | inactive: 13.2% |
